Data reported in patent US20210230272A1 (L AND L BIOPHARMA, published 2021).
Changes are numbered by the printed parent chain. Names and notes keep the numbering of the source. Blank lines part the entries; values can stand above or below the binder they belong to.

Key:
human T cell CD3 [1] = target: T1, human T cell CD3 (human); test: flow cytometry; EC50 ratio to LB155
T1 construct: whole, on cells; also called CD3 (T cell)

human T cell CD3 [2] = target: T1, human T cell CD3; test: flow cytometry on activated human T cells
[3] = target: T2, IL10 antibody (Sino biological, Cat #SEKA10947); test: ELISA with IL10 Ab; mouse serum 37° C.
T2 construct: also called IL10 Ab; HRP labeled rabbit anti-human IL10

[4] = target: T2, IL10 antibody (Sino biological, Cat …); test: ELISA with IL10 Ab; mouse serum 37° C., 0 h
[5] = target: T2, IL10 antibody (Sino biological, Cat …); test: ELISA with IL10 Ab; mouse serum 37° C., 24 h
[6] = target: T2, IL10 antibody (Sino biological, Cat …); test: ELISA with IL10 Ab; mouse serum 37° C., 72 h
[7] = target: T2, IL10 antibody (Sino biological, Cat …); test: sandwich ELISA: hCLDN18.2+ cells on the plate, HRP rabbit anti-human IL10
FcγR I/CD64 = target: T3, FcγR I/CD64 (UniProt P12314 16-288); test: ELISA, CD64 coated
T3 construct: also called CD64 (FcγR I)

TGFβ1 [8] = target: T4, TGFβ1 (human, UniProt P01137 partial chain); test: ELISA, TGFβ1 coated
T4 construct: also called TGFβI; human TGFβI

TGFβ2 = target: T5, TGFβ2 (human, UniProt P61812 303-414); test: ELISA, TGFβ2 coated
T5 construct: also called TGFβII
T5 sequence (looked up): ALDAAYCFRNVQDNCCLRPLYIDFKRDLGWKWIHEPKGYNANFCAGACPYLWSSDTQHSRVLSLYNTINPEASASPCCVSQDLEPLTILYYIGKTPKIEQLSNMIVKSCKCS

TGFβ1 [9] = target: T4, TGFβ1; test: ELISA, TGFβ1 coated; mouse serum 37° C., 0 h
TGFβ1 [10] = target: T4, TGFβ1; test: ELISA, TGFβ1 coated; mouse serum 37° C., 24 h
TGFβ1 [11] = target: T4, TGFβ1; test: ELISA, TGFβ1 coated; mouse serum 37° C., 72 h
[12] = target: T2, IL10 antibody (Sino biological, Cat …); test: ELISA for the IL10 part

T4 sequence (P01137 279-390 limits assumed): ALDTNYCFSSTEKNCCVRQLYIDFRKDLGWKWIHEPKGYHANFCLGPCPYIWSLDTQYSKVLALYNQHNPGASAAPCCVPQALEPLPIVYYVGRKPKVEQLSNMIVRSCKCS
T1 sequence (P07766 23-207, chain 1 of 4): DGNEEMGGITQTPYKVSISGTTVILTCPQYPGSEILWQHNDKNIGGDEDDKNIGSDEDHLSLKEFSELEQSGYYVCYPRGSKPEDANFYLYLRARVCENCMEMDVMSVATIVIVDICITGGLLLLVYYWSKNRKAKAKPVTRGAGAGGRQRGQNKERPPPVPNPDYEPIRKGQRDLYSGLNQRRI
T1 sequence (P09693 23-182, chain 2 of 4, further chain): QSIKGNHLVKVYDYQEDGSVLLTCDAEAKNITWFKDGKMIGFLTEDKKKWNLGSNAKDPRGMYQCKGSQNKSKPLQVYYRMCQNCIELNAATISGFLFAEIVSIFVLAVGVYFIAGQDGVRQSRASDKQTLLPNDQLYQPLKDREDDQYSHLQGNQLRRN
T1 sequence (P04234 22-171, chain 3 of 4, further chain): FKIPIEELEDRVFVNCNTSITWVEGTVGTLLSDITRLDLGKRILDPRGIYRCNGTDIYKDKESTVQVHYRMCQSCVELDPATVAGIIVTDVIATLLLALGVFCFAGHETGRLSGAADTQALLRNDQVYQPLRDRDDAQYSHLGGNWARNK
T1 sequence (P20963 22-164, chain 4 of 4, further chain): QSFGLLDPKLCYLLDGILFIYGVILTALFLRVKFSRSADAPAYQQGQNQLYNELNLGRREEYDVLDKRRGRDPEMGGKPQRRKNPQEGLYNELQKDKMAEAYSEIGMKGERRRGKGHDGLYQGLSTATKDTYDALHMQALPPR
Sequence of FcγR I/CD64 (P12314 16-288 limits assumed): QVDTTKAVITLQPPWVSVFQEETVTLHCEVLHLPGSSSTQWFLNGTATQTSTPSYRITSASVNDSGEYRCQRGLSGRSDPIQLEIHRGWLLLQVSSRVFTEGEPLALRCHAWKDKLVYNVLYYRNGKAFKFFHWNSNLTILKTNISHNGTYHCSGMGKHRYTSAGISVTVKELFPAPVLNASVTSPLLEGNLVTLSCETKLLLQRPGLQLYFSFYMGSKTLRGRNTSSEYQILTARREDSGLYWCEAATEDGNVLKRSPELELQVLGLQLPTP

B3: LB433 (bispecific antibody, human IgG1, kappa)
light: DIVMTQSPDSLAVSLGERATISCKSSQSLLNSGNQKNYLTWYQQKPGQPPKLLIYWASTRESGVPDRFSGSGSGTDFTLTISSLQAEDVAVYYCQNDYFYPFTFGQGTKLEIKRTVAAPSVFIFPPSDEQLKSGTASVVCLLNNFYPREAKVQWKVDNALQSGNSQESVTEQDSKDSTYSLSSTLTLSKADYEKHKVYACEVTHQGLSSPVTKSFNRGEC
heavy: QVQLVQSGAEVKKPGSSVKVSCKASGYAFSNYLIEWVKQAPGQGLEWIGLINPGSGGTNYNEKFKGKATITADKSTSTAYMELSSLRSEDTAVYYCARVYYGNSFAYWGQGTLVTVSS[human IgG1 constant region not shown]GGGGSGGGGSGGGGSSPGQGTQSENSCTHFPGNLPNMLRDLRDAFSRVKTFFQMKDQLDNLLLKESLLEDFKGYLGCQALSEMIQFYLEEVMPQAENQDPDIKAHVNSLGENLKTLRLRLRRCHRFLPCENKSKAVEQVKNAFNKLQEKGIYKAMSEFDIFINYIEAYMTMKIRN
notes: Ab10VH-Hc (hIgG1, K to A)-(G4S)3-IL10
- binding result (FcγR I/CD64): binds

B4: LB401 (bispecific antibody, human IgG1, kappa)
light: B3 light
heavy: QVQLVQSGAEVKKPGSSVKVSCKASGYAFSNYLIEWVKQAPGQGLEWIGLINPGSGGTNYNEKFKGKATITADKSTSTAYMELSSLRSEDTAVYYCARVYYGNSFAYWGQGTLVTVSS[human IgG1 constant region not shown]GGGGSGGGGSGGGGSGIPPHVQKSVNNDMIVTDNNGAVKFPQLCKFCDVRFSTCDNQKSCMSNCSITSICEKPQEVCVAVWRKNDENITLETVCHDPKLPYHDFILEDAASPKCIMKEKKKPGETFFMCSCSSDECNDNIIFSEEYNTSNPD
notes: Ab10VH-Hc (hIgG1, K to A)-(G4S)3-TGFβRII extracellular region; also called TRAP
- EC50 (TGFβ1 [8]): 0.26 nM
- EC50 (TGFβ2): 11.8 nM
- EC50 (TGFβ1 [9]): 1.18 nM
- EC50 (TGFβ1 [10]): 1.4 nM
- EC50 (TGFβ1 [11]): 6.92 nM

B6: LB4335 (bispecific antibody, human IgG1, kappa)
light: B3 light
heavy: QVQLVQSGAEVKKPGSSVKVSCKASGYAFSNYLIEWVKQAPGQGLEWIGLINPGSGGTNYNEKFKGKATITADKSTSTAYMELSSLRSEDTAVYYCARVYYGNSFAYWGQGTLVTVSSASTKGPSVFPLAPSSKSTSGGTAALGCLVKDYFPEPVTVSWNSGALTSGVHTFPAVLQSSGLYSLSSVVTVPSSSLGTQTYICNVNHKPSNTKVDKKV[human IgG1 Fc with changes not shown]AGGGGSGGGGSGGGGSSPGQGTQSENSCTHFPGNLPNMLRDLRDAFSRVKTFFQMKDQLDNLLLKESLLEDFKGYLGCQALSEMIQFYLEEVMPQAENQDPDIKAHVNSLGENLKTLRLRLRRCHRFLPCENKSKAVEQVKNAFNKLQEKGIYKAMSEFDIFINYIEAYMTMKIRN
- EC50 [12]: 0.31 nM

Results, then the binder that gave them:

- EC50 fold change (human T cell CD3 [1]): 0.62
- EC50 (human T cell CD3 [2]): 10.3 nM
B1: LB193 (bispecific antibody)
light: B3 light
heavy: not shown

- EC50 change, 72 h against 0 h in serum [3]: 1.4 times
- EC50 [4]: 0.083 nM
- EC50 [5]: 0.08 nM
- EC50 [6]: 0.115 nM
- EC50 [7]: 11.3 nM
B2: LB432 (bispecific antibody, human IgG1, kappa)
light: B3 light
heavy: SPGQGTQSENSCTHFPGNLPNMLRDLRDAFSRVKTFFQMKDQLDNLLLKESLLEDFKGYLGCQALSEMIQFYLEEVMPQAENQDPDIKAHVNSLGENLKTLRLRLRRCHRFLPCENKSKAVEQVKNAFNKLQEKGIYKAMSEFDIFINYIEAYMTMKIRNGGGGSGGGGSGGGGSQVQLVQSGAEVKKPGSSVKVSCKASGYAFSNYLIEWVKQAPGQGLEWIGLINPGSGGTNYNEKFKGKATITADKSTSTAYMELSSLRSEDTAVYYCARVYYGNSFAYWGQGTLVTVSS[human IgG1 constant region not shown]

- EC50 (TGFβ1 [8]): 0.31 nM
- EC50 (TGFβ2): 14.2 nM
B5: LB401.2 (bispecific antibody, human IgG1, kappa)
light: B3 light with Q35N, T40A
heavy: B4 heavy

- EC50 [12]: 0.19 nM
B7: LB4333 (bispecific antibody, human IgG1, kappa)
light: B3 light
heavy: QVQLVQSGAEVKKPGSSVKVSCKASGYAFSNYLIEWVKQAPGQGLEWIGLINPGSGGTNYNEKFKGKATITADKSTSTAYMELSSLRSEDTAVYYCARVYYGNSFAYWGQGTLVTVSS[human IgG1 constant region with L234A (EU numbers) not shown]GGGGSGGGGSGGGGSSPGQGTQSENSCTHFPGNLPNMLRDLRDAFSRVKTFFQMKDQLDNLLLKESLLEDFKGYLGCQALSEMIQFYLEEVMPQAENQDPDIKAHVNSLGENLKTLRLRLRRCHRFLPCENKSKAVEQVKNAFNKLQEKGIYKAMSEFDIFINYIEAYMTMKIRN

- EC50 [12]: 0.23 nM
B8: LB4334 (bispecific antibody)
light: B3 light
heavy: QVQLVQSGAEVKKPGSSVKVSCKASGYAFSNYLIEWVKQAPGQGLEWIGLINPGSGGTNYNEKFKGKATITADKSTSTAYMELSSLRSEDTAVYYCARVYYGNSFAYWGQGTLVTVSS[human IgG1 constant region with changes not shown]GGGGSGGGGSGGGGSSPGQGTQSENSCTHFPGNLPNMLRDLRDAFSRVKTFFQMKDQLDNLLLKESLLEDFKGYLGCQALSEMIQFYLEEVMPQAENQDPDIKAHVNSLGENLKTLRLRLRRCHRFLPCENKSKAVEQVKNAFNKLQEKGIYKAMSEFDIFINYIEAYMTMKIRN
